According to the supplement of paper PMC10126150:
Values marked as one replicate rest on one cluster of the flow cell; about a third of the high ones do not repeat.

Each sequence was assayed on ATP (assay: switch fluorescence ratio, 500 uM ATP over buffer (Cy3 cluster intensity, sum of 5 cycles each) (fold (ratio)); higher = stronger signal-on switching upon ATP binding; sequences stand for … in TCGTCGGCAGCGTCAGATGTGTATAAGAGACAGTTTTTTTTTTTTTTTTTTTTTTTTT…TC). Conditions: aptamer strand: ATP DNA aptamer (quencher-CACCTGGGGGAGTATTGCGGAGGAAGG + anchor), 100 nM annealed; ATP concentration: 500 uM; one replicate.
How it was run: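 Cy3-labelled switching-strand clusters on a modified Illumina MiSeq flow-cell were annealed to 100 nM quencher-labelled ATP aptamer, imaged in selection buffer, then imaged after 15 min with 500 uM ATP at 22 °C. Five buffer/ATP cycles ran, with NaOH stripping and re-annealing between them. The fluorescence ratio is summed target-cycle over summed buffer-cycle Cy3 intensity per cluster, averaged per switch-domain sequence. Clusters outside 100-1000 RFU were excluded.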
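Further: ATP exposure 15 min at 22 °C before imaging.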

Row | Sequence | switch fluorescence ratio
1 | CGTGAAAAT | 0.993
2 | CGTGAAGTGT | 1.02
3 | CGTGAGGGCA | 1.04
4 | CGTGAGGTGG | 0.925
5 | CGTGAGTATG | 1.04
6 | CGTGATAGGT | 1.02
7 | CGTGATCGC | 1.05
8 | CGTGCATGCT | 1.01
9 | CGTGCGATCA | 0.983
10 | CGTGCGGATT | 0.981
11 | CGTGCGTGGT | 1.02
12 | CGTGGAAATC | 1
13 | CGTGGAAGTT | 1.05
14 | CGTGGCCGGG | 1
15 | CGTGGGCACT | 1.05
16 | CGTGGGGTAC | 1.1
17 | CGTGGTATCC | 0.989
18 | CGTGGTCCGT | 0.962
19 | CGTGTGAGGC | 1
20 | CGTGTGCTCA | 1.04
21 | CGTGTGGTAA | 0.986
22 | CGTGTGTTAG | 1.01
23 | CGTTAACCGG | 0.994
24 | CGTTAATGCA | 1
25 | CGTTAATGCG | 0.939

Row | Sequence | switch fluorescence ratio
26 | CGTTACTCTG | 1.11
27 | CGTTAGGTCA | 1.03
28 | CGTTAGTCAC | 0.97
29 | CGTTATGTCT | 1.07
30 | CGTTATTCAG | 0.976
31 | CGTTCACTAT | 1.03
32 | CGTTCCCACC | 0.982
33 | CGTTCCTGTA | 1
34 | CGTTCGATGT | 0.964
35 | CGTTCGTCGA | 1.04
36 | CGTTCTAACC | 1.01
37 | CGTTCTTCTG | 0.983
38 | CGTTGAAATG | 0.976
39 | CGTTGAACAA | 1
40 | CGTTGAAGGT | 0.981
41 | CGTTGAATTA | 1.01
42 | CGTTGCAGGA | 1.07
43 | CGTTGCATCA | 1.01
44 | CGTTGCCAAA | 0.991
45 | CGTTGCTCCT | 0.998
46 | CGTTGGCAAC | 1
47 | CGTTGGGCAA | 0.994
48 | CGTTGGGCAC | 1.06
49 | CGTTGGTCGT | 0.99
50 | CGTTGTACCT | 1.13

Row | Sequence | switch fluorescence ratio
51 | CGTTTAGAA | 1.03
52 | CGTTTATCCG | 1.06
53 | CGTTTCCCTT | 1.01
54 | CGTTTCCTAG | 0.991
55 | CGTTTGGATA | 1.07
56 | CGTTTGTTTC | 0.974
57 | CGTTTTAGGA | 0.949
58 | CGTTTTAGTT | 0.956
59 | CGTTTTATGG | 0.995
60 | CGTTTTCTGG | 1.02
61 | CGTTTTGCCA | 0.969
62 | CGTTTTGTCC | 0.989
63 | CTAAAACAGT | 0.985
64 | CTAAAAGCCG | 0.978
65 | CTAAAAGGGC | 0.945
66 | CTAAAATCGA | 0.982
67 | CTAAACGCGA | 2.63
68 | CTAAAGTTTT | 1.02
69 | CTAAATTCTT | 1
70 | CTAACAGATC | 0.964
71 | CTAACGAGTG | 0.962
72 | CTAACGTTGT | 1.01
73 | CTAACTCAAT | 1.16
74 | CTAACTCGTT | 0.975
75 | CTAACTTAAG | 1.02

Row | Sequence | switch fluorescence ratio
76 | CTAAGCTCGC | 1.05
77 | CTAAGCTCTC | 1.1
78 | CTAAGGAATT | 0.99
79 | CTAAGGCTG | 0.985
80 | CTAAGGGCTG | 1.01
81 | CTAAGTATCG | 1.02
82 | CTAATAACTT | 1.02
83 | CTAATACTAC | 1.17
84 | CTAATAGATG | 1.03
85 | CTAATAGGGC | 0.981
86 | CTAATAGGGG | 1.02
87 | CTAATAGTCT | 1.06
88 | CTAATCGG | 1.04
89 | CTAATCGGCG | 1.01
90 | CTAATCTTTC | 1.14
91 | CTAATGCCGG | 1.07
92 | CTAATTAGAC | 0.972
93 | CTAATTGCAT | 1.04
94 | CTACAACGCG | 0.994
95 | CTACACTCCC | 1.72
96 | CTACACTGCT | 0.926
97 | CTACAGTCTT | 1.02
98 | CTACCATCTG | 1.03
99 | CTACCCGTTT | 0.949
100 | CTACCGTTGA | 1.05

Row | Sequence | switch fluorescence ratio
101 | CTACCTCTGG | 1
102 | CTACGACCTT | 1.23
103 | CTACGCTAGT | 1.29
104 | CTACGGGATG | 1.13
105 | CTACGGGTCA | 1.02
106 | CTACGTTATA | 1.81
107 | CTACTATCGG | 1.04
108 | CTACTCGGAG | 1.02
109 | CTACTGGACA | 1.21
110 | CTACTGTCGT | 1.01
111 | CTACTTAGG | 1.03
112 | CTACTTAGGC | 1.01
113 | CTAGAACAGG | 1.03
114 | CTAGACAGTA | 1.04
115 | CTAGACGCGG | 0.994
116 | CTAGACGTTC | 1.05
117 | CTAGACTAGA | 1.01
118 | CTAGATTGTT | 0.986
119 | CTAGCACCGG | 1.06
120 | CTAGCAGGGG | 1.22
121 | CTAGCATATG | 1.06
122 | CTAGCCTGGC | 1.22
123 | CTAGCTCTCG | 0.961
124 | CTAGCTCTGC | 1.06
125 | CTAGGACGGT | 0.987

Row | Sequence | switch fluorescence ratio
126 | CTAGGACGTT | 1.04
127 | CTAGGACTAC | 1.1
128 | CTAGGAGCGG | 0.965
129 | CTAGGATAGC | 0.986
130 | CTAGGATTT | 1.01
131 | CTAGGCAGTG | 1.03
132 | CTAGGCATGG | 1.01
133 | CTAGGCCAGG | 1.15
134 | CTAGGCCGTC | 0.997
135 | CTAGGGGTGT | 1.09
136 | CTAGGGTATC | 1.01
137 | CTAGGGTATT | 0.991
138 | CTAGGTAGTA | 0.962
139 | CTAGTACATT | 1.05
140 | CTAGTAGACT | 1.06
141 | CTAGTCCTAG | 0.983
142 | CTAGTGGGCC | 1
143 | CTAGTGGTTC | 0.958
144 | CTAGTTTGT | 0.994
145 | CTATAACGCC | 1.03
146 | CTATACCTCG | 1.02
147 | CTATACTCAT | 1.02
148 | CTATATCCAC | 1.07
149 | CTATATGGGG | 0.98
150 | CTATCACGGT | 1.02

Row | Sequence | switch fluorescence ratio
151 | CTATCGATAA | 1
152 | CTATCGCTTT | 1.11
153 | CTATCGTAGG | 0.999
154 | CTATCTGGGG | 0.947
155 | CTATGAGGGA | 0.976
156 | CTATGCTGCT | 0.993
157 | CTATGCTGTA | 1.07
158 | CTATGTGTTT | 1.03
159 | CTATTAATTG | 0.996
160 | CTATTACGA | 1.04
161 | CTATTCGT | 1.05
162 | CTATTTAGTG | 1
163 | CTATTTTATG | 0.98
164 | CTATTTTGAA | 0.96
165 | CTCAACAGAC | 1.88
166 | CTCAATAGTA | 1.02
167 | CTCACCCAGC | 4.34
168 | CTCACCCATA | 1.13
169 | CTCACCGAGA | 0.996
170 | CTCACCTCAC | 1.44
171 | CTCACCTTTA | 1.03
172 | CTCACGTTAG | 1.05
173 | CTCACTTGG | 1
174 | CTCAGACAAT | 1.75
175 | CTCAGATAGT | 0.996

Row | Sequence | switch fluorescence ratio
176 | CTCAGCACGA | 2.1
177 | CTCAGCTTTT | 1.41
178 | CTCAGTTGCG | 0.999
179 | CTCATCATTG | 1.02
180 | CTCATGTTT | 0.962
181 | CTCATTGAAT | 0.971
182 | CTCATTGGCT | 0.987
183 | CTCCAATATG | 1.63
184 | CTCCAGGCAT | 3.3
185 | CTCCAGGTGG | 1.58
186 | CTCCATCGGT | 1.05
187 | CTCCCTGGTC | 1.71
188 | CTCCGGTGGA | 1.14
189 | CTCCGTTGG | 1.66
190 | CTCCTAACCG | 1.11
191 | CTCCTATTGG | 0.987
192 | CTCCTGAATT | 1.04
193 | CTCCTGTCCC | 1.14
194 | CTCCTGTCTG | 1.03
195 | CTCGAAACCG | 1.03
196 | CTCGAACTT | 1.02
197 | CTCGAATATC | 1.5
198 | CTCGAATCCT | 1.05
199 | CTCGACAAGT | 1.04
200 | CTCGACATTC | 1.36
